Measured values taken from PubChem BioAssay AID686979 (National Center for Advancing Translational Sciences (NCATS), 2013).
Screen size: about 420,000 compounds; about 50,000 (12%) were called active. The shares of active, inactive and inconclusive entries below differ from those in the screen. The call rests on the fitted dose curve; in most records, active means well fitted inhibition curve with a large enough effect; inconclusive means small, poorly fitted or top-dose-only effect; inactive means flat fitted curve, though single readings scatter. No potency is given beside an inconclusive call; the fits are too rough.

Assay: qHTS for Inhibitors of human tyrosyl-DNA phosphodiesterase 1 (TDP1): qHTS in cells in presence of CPT; further: nearly all actives have a fitted effect of over 55% in size
Conditions: chicken DT40 Tdp1-/-;hTDP1 cells + 20 nM CPT, ATP luminescence, 48 h; activity change, negative = growth inhibition: at 46.2 µM (top of the series) unless noted
How it was run: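 Cell growth measured by CellTiter-Glo luminescence after a minimum 48 h, 37 C compound exposure with 20 nM CPT in Tdp1-knockout DT40 cells stably expressing hTDP1, seeded 400/well; qHTS titration format.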
On the % scale 0 is the no-effect control and ±100 the full control effect; potency means the concentration at half of the fitted maximal effect; tags describe the fitted curve by direction and shape.

Structure (SMILES) | Potency | activity change, negative = growth inhibition
Cc1cccc(C(=O)Nc2cccc(S(=O)(=O)NCc3ccco3)c2)c1 | inconclusive [inhibitor, partial curve, poor fit] | 
C=C(C)CSc1nc2sc3c(c2c(=O)n1-c1ccc(C)cc1)CCN(C)C3 | active: 18.4 µM | 
Cn1ccc(=NC=C(C#N)C#N)c2ccccc21 | inconclusive [inhibitor, single point] | 
CCCCCCCC(=O)N/N=C/c1ccc(Br)cc1 | inconclusive [inhibitor, single point] | 
CCOc1ccc(NC(=O)CSc2nnc(-c3ccc(OCC)cc3)o2)cc1 |  | inactive: -16.9%
Cc1cc2cc(C)c3nnc(SCC(=O)NCc4ccco4)n3c2cc1C | inconclusive [inhibitor, single point] | 
CCC(C)NC(=O)COc1ccc(Br)c(C)c1 (stereo not drawn) | inconclusive [inhibitor, single point] | 
COC(=O)c1ccccc1NC(=O)CSc1nc(=O)cc(N)n1-c1ccccc1 |  | inactive: 8.32%
O=[N+]([O-])c1ccc(N=Nc2ccc(O)cc2O)cc1 | inconclusive [inhibitor, single point] | 
Cc1cccc(NC(=O)COc2ccc(-c3nn(C)c(=O)c4ccccc34)cc2)c1 | active: 11.6 µM | 
O=C(NCCC(=O)N(Cc1ccco1)Cc1cccs1)c1ccc([N+](=O)[O-])cc1 | inconclusive [inhibitor, partial curve, poor fit] | 
Cc1coc2cc3oc(=O)c(CC(=O)NCc4cccc(Cl)c4)c(C)c3cc12 | inconclusive [inhibitor, single point] | 
Cc1ccc(S(=O)(=O)N(CC(=O)Nc2ccc(Cl)cc2)C(=O)N2CCN(C)CC2)cc1 | inconclusive [inhibitor, single point] | 
Cn1c(SCC(=O)Nc2sccc2C(N)=O)nc2ccccc2c1=O | inconclusive [inhibitor, single point] | 
Cc1ccc(CNC(=O)c2c(-c3ccccc3Cl)noc2C)o1 | inconclusive [inhibitor, single point] | 
COc1ccc(S(=O)(=O)N2CCCC2CNC(=O)C(=O)NC2CCCC2)cc1 (stereo not drawn) |  | inactive: -16.4%
CCS(=O)(=O)c1ccc(O)c(NC(=O)Nc2ccc(C(C)(C)C)cc2)c1 |  | inactive: 1.72%
CCC1=C(OC(=O)N(CC)CC)N2C(=O)OC(=NCCc3c[nH]c4ccccc34)[C@]2(Cc2ccccc2)[C@H]2C1=CC[C@H]1C(=O)N(CC)C(=O)[C@H]12 | inconclusive [inhibitor, single point] | 
Cc1cccc(NC(=O)C(C)SCc2ccccc2)c1 (stereo not drawn) |  | inactive: -16.9%
COn1c(-c2ccccc2)nc2c1CCc1c-2no[n+]1[O-] |  | inconclusive: -34% [inhibitor]
Cc1cc(N2CCN(C)CC2)nc2ccc(NC(=S)NCCCN3CCc4ccccc4C3)cc12 | inconclusive [inhibitor, single point] | 
CCc1cc(=O)oc2c3c(cc(OCC(=O)NCc4cccnc4)c12)OC(C)(C)CC3 | inconclusive [inhibitor, single point] | 

Structure (SMILES) | Potency | activity change, negative = growth inhibition
O=C(c1cc2c(c(-c3cccc(-c4ccc(F)cc4)c3)n1)[C@H](CCO)N(C(=O)c1ccc3c(c1)OCO3)C2)N1CCOCC1 | inconclusive [inhibitor, single point] | 
COc1cc(OC)c(NC(=O)CN2CCCN(Cc3ccccc3C)S2(=O)=O)cc1Cl | inconclusive [inhibitor, single point] | 
O=[N+]([O-])c1ccc(O)c(Nc2ncnc3ccc(Br)cc23)c1 |  | inactive: -20.4%
CCOc1ccc(NS(=O)(=O)c2cccc(C(=O)N3CCN(C/C=C/c4ccccc4)CC3)c2)cc1 | inconclusive [inhibitor, single point] | 
CSc1nnc(NC(=O)c2cc3ccccc3oc2=O)s1 | inconclusive [inhibitor, full curve, poor fit] | 
Cc1ccc(OC(C)C(=O)Nc2ccc(S(=O)(=O)N3CCOCC3)cc2)cc1 (stereo not drawn) | inconclusive [inhibitor, single point] | 
COc1ccc(C(=O)Cn2c(Cl)nc3c2c(=O)n(C)c(=O)n3C)cc1 | inconclusive [inhibitor, single point] | 
COc1ccc(CNC(=O)Nc2ccc3c(c2)N(C)C(=O)c2ccccc2S3)cc1OC | inconclusive [inhibitor, single point] | 
CCc1ccc(/C(C)=N/NC(=O)C(O)c2ccccc2)s1 (stereo not drawn) |  | inactive: 20.3%
CSc1ccc(C(O)c2ncc(-c3ccc(F)cc3)[nH]2)cc1 (stereo not drawn) | active: 29.1 µM | 
O=C(O)c1ccc(N/N=C/c2ccc3ncccc3c2)cc1 | inconclusive [inhibitor, single point] | 
COCCNC(=O)C1(C)CCN(C(=O)c2cccc(C)c2C)C1 (stereo not drawn) | inconclusive [inhibitor, full curve, poor fit] | 
c1ccc2c(CNn3cnnc3)cccc2c1 |  | inactive: -4.07%
CCOC(=O)c1cc(C(=O)c2cc(Br)ccc2O)coc1=N |  | inactive: -5.91%
O=C(NCCN1CCOCC1)c1ccccc1-c1ccccc1 |  | inconclusive: -33.6% [inhibitor]
O=C(c1cnn(-c2nccc(-c3ccccc3F)n2)c1C1CC1)N1CCCCC1c1cccnc1 (stereo not drawn) |  | inactive: 3.8% [at 9.04 µM]
O=C(NCc1ccccc1)Nc1cccn(Cc2ccc(F)cc2)c1=O | inconclusive [inhibitor, single point] | 
CC1CC(C)(C)OC(c2ccc(C(C)C)cc2)O1 (stereo not drawn) |  | inactive: 4.57%
c1ccc(-c2nc(-c3ccccn3)nc(-c3ccccn3)n2)nc1 | inconclusive [inhibitor, single point] | 
COc1cc(NC(=O)c2cc(-c3ccco3)on2)cc(OC)c1OC | inconclusive [inhibitor, single point] | 
CC1(c2ccc([N+](=O)[O-])cc2)NC(=O)N(CC(=O)Nc2ccc(N3CCCCC3)cc2)C1=O (stereo not drawn) | inconclusive [inhibitor, single point] | 
